The source gives no read counts; variants with many changes may rest on few reads.
B1: CPEB3 Ribozyme (parent)
chain: UAACAGGGGGCCACAGCAGAAGCGUUCACGUCGCAGCCCCUGUCAGAUUCUGGUGAAUCUGCGAAUUCUGCUGUAUAUCUC

Variants of: B1
Assay: self-cleavage, relative activity (ratio to wild type); higher = more cleavage; in vitro, sequencing
Method in brief: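 Relative activity compares each variant's cleaved/total read fraction with that of the unmutated ribozyme. To get these fractions, barcoded CPEB3 ribozyme libraries from rounds of error-prone PCR were transcribed with T7 RNA polymerase for 5 hours at 37°C and then given 15 min of DNase I treatment before EDTA was added. The RNAs were reverse transcribed with template switching and sequenced on Illumina, and DNA sequencing linked barcodes to variants. A minimum of 5 reads applied, and three batches were averaged.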

Variant | self-cleavage
A13U A20G C32G U54A A57G A64G A65G | 0.02
A13U U31A C32A A35G A64G U74A A75U | 0.23
A13U A64C U67A | 0.25
A13U A20G U31A U72C | 0.26
A13U U26C A57G | 0.45
A13U A28C A45U U49A U72A | 0.16
A13U C17U A18G U43G A47G A56G | 0.07
A13U U31A A56C | 0.47
A13U A56G U58C | 0.21
A13U C17U U48C U51C G55C U72C U80A | 0.13
A13U C38U U72C | 1.21
A13U U26C A57G U69C U80C | 0.05
A13U A20U U26C A35G | 0.31
A13U C40U U41A A45U U72A U78C | 0.05
A13U A20G A47G U54A G63A | 0.68
A13U U26C U41A A64U U72C | 0.06
A13U U26C C29U U41C U48C A56U | 0.15
A13U A75G C79U | 1.26
A13U A47G A65U U72A | 0.3
A13U A20U A47G U60A U69A U72C U78C | 0.05
A13U U25C U31C U80A | 0.09
A13U A28U U78C | 1.01
A13U U26C A56G U80C | 0.37
A13U A28G U49C A57G U72A | 0.13

Variant | self-cleavage
A13U G63U U72G | 0.91
A13U C37U G52A C62A | 0.17
A13U G16C A21U A57G C62U A65U | 0.07
A13U G30U U41A U72A | 0.04
A13U C17G U31A A45U G73A | 0.13
A13U C32U C37G | 0.15
A13U C14U G42A U48A U69A | 0.17
A13U A20G U25C U43C A57G U80C | 0.06
A13U U26C A35G A47G A64U U72A | 0.07
A13U U25G U54G U58C U67C U78C | 0.13
A13U C62U U74A U78C | 0.57
A13U A20G C29U | 0.19
A13U A28G C37U A45G A65G U72A U80C | 0.05
A13U G63U U74A | 1.26
A13U C27A A57G U67A | 0.12
A13U A21G G42A A56G A57G U58C C68A | 0.09
A13U U26C C27A U31A C34G C40U U66C | 0.05
A13U A45G U49C U60A A64C | 0.1
A13U A35U U41G | 0.14
A13U A35U U41A | 0.19
A13U U26C C29U U51C | 0.3
A13U A57G U80A | 1.12
A13U C23U U31C A45C A64G U72A | 0.08
A13U G24A U26C U54C C62U | 0.06

Variant | self-cleavage
A13U G63A A64G U69C | 0.17
A13U A20G U26C A28U G70A U74G A75G | 0.1
A13U U31A A35U U41A U43C U78C | 0.13
A13U C34G U66C U72C | 0.14
A13U U26C U31C U60C A75G | 0.14
A13U A21U U43C C44U U69C U78C | 0.18
A13U G19U U26C U41C | 0.24
A13U U26A C39U A56G | 0.2
A13U C17U G36A A45G A47C U51C U60C | 0.05
A13U A45C U54C | 0.39
A13U A18U U49C | 0.25
A13U A21G U48C U49C U80C | 0.07
A13U A20G U25A C71G A75U U78C | 0.09
A13U U25A U80A | 0.21
A13U C27A C32A U51A U58A A75U | 0.13
A13U C23U A56U | 0.11
A13U A21G U54A A75G | 0.36
A13U U25C U31C A35G U54C | 0.22
A13U A21C C81U | 0.27
A13U U25C U49C A56G | 0.57
A13U C38U U49A C50U | 0.44
A13U A28C U51C U78C | 0.63
A13U A28G U49C | 0.17
A13U U25C U26C U72A | 0.04

Variant | self-cleavage
A13U C38A U60A A75U | 0.13
A13U A57G U69C U72C U78A U80A | 0.43
A13U A20G G22C U41A A45U U54A | 0.09
A13U C27A U51G U58C | 0.11
A13U U26C A45U A65G | 0.07
A13U G42A U51C | 0.49
A13U C32A C34U U80C C81A | 0.08
A13U C17A A21G | 0.16
A13U U26C G33A | 0.23
A13U A28G U72C | 0.69
A13U U25C G30C U51A A56G | 0.2
A13U U25C U26C | 0.03
A13U A28G U74C A75G | 1.11
A13U U25C U60C G63A A75U | 0.08
A13U A20U A28G U54C C79A | 0.11
A13U A20G G46A | 0.26
A13U A28U U60C A64G | 0.37
A13U A28G C37U A45G U51A A64G | 0.09
A13U A18U U26C A28U | 0.1
A13U A35G U51C U80C | 1.25
A13U C14U G16U U31A C62U | 0.2
A13U C37U U54A | 1.01
A13U A35G C40G A57G U58A A64G G70U | 0.03
A13U A28G U69A U76A | 0.13

Variant | self-cleavage
A13U A20G A47G | 0.95
A13U U25A U54A U66C | 0.16
A13U A65G U67C | 0.23
A13U A57G C71U A75U | 0.77
A13U A28G U41A A47U U78C | 0.05
A13U G22A U49A U51C | 0.09
A13U A21G G30A A47U | 0.12
A13U A28G A35G U54C U80C | 1.19
A13U U26C C32U A57G | 0.06
A13U A28G U51C G63A A65G C81U | 0.23
A13U A20G U60A A77C | 0.18
A13U C39G U41C U51C | 0.31
A13U A35U G55C A57G | 0.09
A13U A20G C34U G63U U69C | 0.1
A13U A28U U31C U78C | 0.68
A13U G16A U51C | 0.62
A13U A21G U26A A47G U48C A57G | 0.32
A13U U26A U48C | 0.42
A13U A28G A35U U51C U58A U78C | 0.08
A13U G33U U66C | 0.16
A13U G33A U69C U80C | 0.16
A13U A20G A35G U49C U51A U58C U80C | 0.63
A13U A20G U25C U43C A45G U69A | 0.1
A13U C29G U58C U69C | 0.14

Variant | self-cleavage
A13U A35U A64U U67G U69A | 0.08
A13U G19U A21G A28G | 0.08
A13U U25C U41C U69C | 0.06
A13U C32U U43C U80C | 0.26
A13U U25C U26C U58C | 0.33
A13U U26C U69A | 0.13
A13U A21G G63A C68G | 0.09
A13U A18U U43C | 0.16
A13U A28G C50A U80C | 0.61
A13U G46U U49C A65G | 0.09
A13U C59A A65G U72C U78C | 0.13
A13U G19A G52U G53A A64U | 0.08
A13U C38U U78C | 1.15
A13U U25C U49C | 0.07
A13U U26C U60G | 0.18
A13U G24C A56G U60A | 0.12
A13U A28U A35U U41C A75U | 0.5
A13U U25G A28G A57G | 0.23
A13U G42A U48C G61A | 0.11
A13U G30A A45C U60C C68A | 0.11
A13U A28G A57G U80A | 0.35
A13U U26C A28G U43A A64U | 0.06
A13U A20G U31C | 0.56
A13U A21G A28G U66C U78C | 0.63

Variant | self-cleavage
A13U U25C U26C A47U U54C A56U A64G | 0.07
A13U G24C C34G U78C | 0.13
A13U U25C U31C A35G | 0.29
A13U C38U U41A U51C A57U U60A U69C | 0.05
A13U C17U C40G A45G U49A C59U U72C | 0.03
A13U A18U U60C C62U A64U U78C | 0.11
A13U A56U U60C | 0.17
A13U A18U U25C U49C | 0.03
A13U C14U U51C U69G | 0.58
A13U A45U U66A U72A | 0.12
A13U U26C C40A A56G | 0.29
A13U U26A C32U A56G U66C U76C U78C | 0.02
A13U A28G U31C U72A U78C | 0.1
A13U G24A A28U U41A | 0.1
A13U A28G A47G U54C | 0.49
A13U C17U C37A G52C | 0.13
A13U A21G A47G A64U A75G | 0.1
A13U A21U U54C U67C A75G | 0.07
A13U A21G U51C U60C | 0.11
A13U A35U A57G U60A A65G | 0.04
A13U A47G U69A | 0.63
A13U U25C U26A U43A U60C | 0.09
A13U A21G U25C A57G A77G | 0.05

From the RNAGym collection of RNA variant scans (doi:10.1093/nar/gkz1192)
